# Some of the results follow.
# B1: Thrombomodulin (Mus musculus) (protein)
# chain: ALAKLQPTGSQCVEHECFALFQGPATFLDASQACQRLQGHLMTVRSSVAADVISLLLSQSSMDLGPWIGLQLPQGCDDPVHLGPLRGFQWVTGDNHTSYSRWARPNDQTAPLCGPLCVTVSTATEAAPGEPAWEEKPCETETQGFLCEFYFTASC
# Key:
# Assay in all cases: glycan array binding signal (z-score within array); higher = stronger binding
# Settings in all cases: glycan notation: IUPAC condensed, linker removed
# [1] = target: Fuc(a1-3)[Gal3S(b1-4)]GlcNAc6S
# Method in brief: (§1)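 The binding signal is a Z-score computed within each array and averaged over linkers. Arrays of the same protein sequence at different concentrations or buffers were also averaged together. Data originate from 3228 arrays in the Consortium for Functional Glycomics database, kept only where the protein sequence was available.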
# [2] = target: Fuc(a1-3)[GalNAc(b1-4)]GlcNAc
# Method in brief: as §1
# [3] = target: Fuc(a1-3)[GalNAc(b1-4)]GlcNAc6S
# Method in brief: as §1
# [4] = target: Fuc(a1-4)GlcNAc
# Method in brief: as §1
# [5] = target: Fuc(b1-3)GlcNAc
# Method in brief: as §1
# [6] = target: Gal(a1-2)Gal
# Method in brief: as §1
# [7] = target: Gal(a1-3)Gal
# Method in brief: as §1
# [8] = target: Gal(a1-3)Gal(b1-3)GlcNAc
# Method in brief: as §1
# [9] = target: Gal(a1-3)Gal(b1-3)GlcNAc(b1-2)Man
# Method in brief: as §1
# [10] = target: Gal(a1-3)Gal(b1-3)GlcNAc(b1-2)Man(a1-3)[Gal(a1-3)Gal(b1-3)GlcNAc(b1-2)Man(a1-6)]Man(b1-4)GlcNAc(b1-4)GlcNAc
# Method in brief: as §1
# [11] = target: Gal(a1-3)Gal(b1-3)GlcNAc(b1-3)GalNAc
# Method in brief: as §1
# [12] = target: Gal(a1-3)Gal(b1-3)GlcNAc(b1-6)GalNAc
# Method in brief: as §1
# [13] = target: Gal(a1-3)Gal(b1-3)[Fuc(a1-4)]GlcNAc(b1-2)Man(a1-3)[Gal(a1-3)Gal(b1-3)[Fuc(a1-4)]GlcNAc(b1-2)Man(a1-6)]Man(b1-4)GlcNAc(b1-4)GlcNAc
# Method in brief: as §1
# [14] = target: Gal(a1-3)Gal(b1-4)Glc
# Method in brief: as §1
# [15] = target: Gal(a1-3)Gal(b1-4)GlcNAc
# Method in brief: as §1
# [16] = target: Gal(a1-3)Gal(b1-4)GlcNAc(b1-2)Man
# Method in brief: as §1
# [17] = target: Gal(a1-3)Gal(b1-4)GlcNAc(b1-2)Man(a1-3)[Gal(a1-3)Gal(b1-4)GlcNAc(b1-2)Man(a1-6)]Man(b1-4)GlcNAc(b1-4)GlcNAc
# Method in brief: as §1
# [18] = target: Gal(a1-3)Gal(b1-4)GlcNAc(b1-3)GalNAc
# Method in brief: as §1
# [19] = target: Gal(a1-3)Gal(b1-4)GlcNAc(b1-6)GalNAc
# Method in brief: as §1
# [20] = target: Gal(a1-3)Gal(b1-4)[Fuc(a1-3)]GlcNAc
# Method in brief: as §1
# [21] = target: Gal(a1-3)Gal(b1-4)[Fuc(a1-3)]GlcNAc(b1-2)Man(a1-3)[Gal(a1-3)Gal(b1-4)[Fuc(a1-3)]GlcNAc(b1-2)Man(a1-6)]Man(b1-4)GlcNAc(b1-4)GlcNAc
# Method in brief: as §1
# [22] = target: Gal(a1-3)GalNAc
# Method in brief: as §1
# [23] = target: Gal(a1-3)[Gal(a1-4)]Gal(b1-4)GlcNAc
# Method in brief: as §1
# [24] = target: Gal(a1-4)Gal(b1-3)GlcNAc(b1-2)Man(a1-3)[Gal(a1-4)Gal(b1-3)GlcNAc(b1-2)Man(a1-6)]Man(b1-4)GlcNAc(b1-4)GlcNAc
# Method in brief: as §1
# [25] = target: Gal(a1-4)Gal(b1-4)Glc
# Method in brief: as §1
# [26] = target: Gal(a1-4)Gal(b1-4)GlcNAc
# Method in brief: as §1
# [27] = target: Gal(a1-4)Gal(b1-4)GlcNAc(b1-2)Man(a1-3)[Gal(a1-4)Gal(b1-4)GlcNAc(b1-2)Man(a1-6)]Man(b1-4)GlcNAc(b1-4)GlcNAc
# Method in brief: as §1
# [28] = target: Gal(a1-4)Gal(b1-4)GlcNAc(b1-3)Gal(b1-4)Glc
# Method in brief: as §1
# [29] = target: Gal(a1-4)GlcNAc
# Method in brief: as §1
# [30] = target: Gal(a1-6)Glc
# Method in brief: as §1
# [31] = target: Gal(b1-2)Gal
# Method in brief: as §1
# [32] = target: Gal(b1-3)Gal
# Method in brief: as §1
# [33] = target: Gal(b1-3)Gal(b1-4)GlcNAc
# Method in brief: as §1
# [34] = target: Gal(b1-3)GalNAc
# Method in brief: as §1
# [35] = target: Gal(b1-3)GalNAc(a1-3)[Fuc(a1-2)]Gal(b1-4)Glc
# Method in brief: as §1
# [36] = target: Gal(b1-3)GalNAc(a1-3)[Fuc(a1-2)]Gal(b1-4)GlcNAc
# Method in brief: as §1
# [37] = target: Gal(b1-3)GalNAc(b1-3)Gal
# Method in brief: as §1
# [38] = target: Gal(b1-3)GalNAc(b1-3)Gal(a1-4)Gal(b1-4)Glc
# Method in brief: as §1
# [39] = target: Gal(b1-3)GalNAc(b1-4)Gal(b1-4)Glc
# Method in brief: as §1
# [40] = target: Gal(b1-3)GalNAc(b1-4)[Neu5Ac(a2-3)]Gal(b1-4)Glc
# Method in brief: as §1
# [41] = target: Gal(b1-3)GlcNAc
# Method in brief: as §1
# [42] = target: Gal(b1-3)GlcNAc(a1-3)Gal(b1-4)GlcNAc
# Method in brief: as §1
# [43] = target: Gal(b1-3)GlcNAc(a1-6)Gal(b1-4)GlcNAc
# Method in brief: as §1
# [44] = target: Gal(b1-3)GlcNAc(b1-2)Man
# Method in brief: as §1
# [45] = target: Gal(b1-3)GlcNAc(b1-2)Man(a1-3)[Gal(b1-3)GlcNAc(b1-2)Man(a1-6)]Man(b1-4)GlcNAc(b1-4)GlcNAc
# Method in brief: as §1
binder,measurement,setting,value
B1,glycan array binding signal (z-score),[1],-0.172
same,glycan array binding signal (z-score),[2],0.256
same,glycan array binding signal (z-score),[3],-0.425
same,glycan array binding signal (z-score),[4],3.52
same,glycan array binding signal (z-score),[5],-0.151
same,glycan array binding signal (z-score),[6],-0.043
same,glycan array binding signal (z-score),[7],-0.008
same,glycan array binding signal (z-score),[8],4.59
same,glycan array binding signal (z-score),[9],0.044
same,glycan array binding signal (z-score),[10],0.13
same,glycan array binding signal (z-score),[11],0.01
same,glycan array binding signal (z-score),[12],-0.107
same,glycan array binding signal (z-score),[13],0.179
same,glycan array binding signal (z-score),[14],-0.137
same,glycan array binding signal (z-score),[15],-0.251
same,glycan array binding signal (z-score),[16],-0.4
same,glycan array binding signal (z-score),[17],-0.221
same,glycan array binding signal (z-score),[18],-0.121
same,glycan array binding signal (z-score),[19],-0.337
same,glycan array binding signal (z-score),[20],-0.285
same,glycan array binding signal (z-score),[21],0.955
same,glycan array binding signal (z-score),[22],-0.154
same,glycan array binding signal (z-score),[23],0.213
same,glycan array binding signal (z-score),[24],0.037
same,glycan array binding signal (z-score),[25],0.022
same,glycan array binding signal (z-score),[26],-0.003
same,glycan array binding signal (z-score),[27],0.19
same,glycan array binding signal (z-score),[28],0.076
same,glycan array binding signal (z-score),[29],-0.405
same,glycan array binding signal (z-score),[30],-0.306
same,glycan array binding signal (z-score),[31],-0.301
same,glycan array binding signal (z-score),[32],0.08
same,glycan array binding signal (z-score),[33],-0.219
same,glycan array binding signal (z-score),[34],-0.048
same,glycan array binding signal (z-score),[35],-0.25
same,glycan array binding signal (z-score),[36],0.025
same,glycan array binding signal (z-score),[37],0.257
same,glycan array binding signal (z-score),[38],-0.277
same,glycan array binding signal (z-score),[39],0.289
same,glycan array binding signal (z-score),[40],0.315
same,glycan array binding signal (z-score),[41],0.002
same,glycan array binding signal (z-score),[42],-0.11
same,glycan array binding signal (z-score),[43],-0.192
same,glycan array binding signal (z-score),[44],0.457
same,glycan array binding signal (z-score),[45],-0.121

# From the supplement of paper PMC8728848
